Laboratory results taken from PubChem BioAssay AID504333 (National Center for Advancing Translational Sciences (NCATS), 2011).
Among all 360,000 compounds or so, about 16,000 (4.4%) were called active. Inconclusive results, whose numbers are uncertain, are shown with a selection of clear calls. Calls come from the whole dose curve; as a rule, active = well fitted inhibition curve with a large enough effect; inconclusive = small, poorly fitted or top-dose-only effect; inactive = no such curve, though single readings can be large or run the other way. Where the call is inconclusive, the potency comes from a doubtful curve fit.

target: Bromodomain adjacent to zinc finger domain protein 2B (Homo sapiens) (UniProt Q9UIF8); assay: qHTS Assay for Inhibitors of BAZ2B; settings: AlphaScreen BAZ2B-H3K14Ac peptide displacement; activity change, negative = inhibition: at 114 µM (top of the series); note: nearly all actives have a fitted effect of over 60% in size
Procedure, shortened: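 Multi-concentration screen (max 110 uM) measuring displacement of acetylated histone H3 peptide from BAZ2B by AlphaScreen, using 50 nM protein, 50 nM peptide and 10 ug/mL streptavidin donor plus Ni-chelate acceptor beads.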
% is set by controls: 0 for no effect and ±100 for the full control effect; potency is the fitted concentration of half-maximal effect; tags give direction and shape of the fitted curve.

Sequence of UniProt Q9UIF8 (Q9UIF8 whole entry, looked up, the tested form may be a part): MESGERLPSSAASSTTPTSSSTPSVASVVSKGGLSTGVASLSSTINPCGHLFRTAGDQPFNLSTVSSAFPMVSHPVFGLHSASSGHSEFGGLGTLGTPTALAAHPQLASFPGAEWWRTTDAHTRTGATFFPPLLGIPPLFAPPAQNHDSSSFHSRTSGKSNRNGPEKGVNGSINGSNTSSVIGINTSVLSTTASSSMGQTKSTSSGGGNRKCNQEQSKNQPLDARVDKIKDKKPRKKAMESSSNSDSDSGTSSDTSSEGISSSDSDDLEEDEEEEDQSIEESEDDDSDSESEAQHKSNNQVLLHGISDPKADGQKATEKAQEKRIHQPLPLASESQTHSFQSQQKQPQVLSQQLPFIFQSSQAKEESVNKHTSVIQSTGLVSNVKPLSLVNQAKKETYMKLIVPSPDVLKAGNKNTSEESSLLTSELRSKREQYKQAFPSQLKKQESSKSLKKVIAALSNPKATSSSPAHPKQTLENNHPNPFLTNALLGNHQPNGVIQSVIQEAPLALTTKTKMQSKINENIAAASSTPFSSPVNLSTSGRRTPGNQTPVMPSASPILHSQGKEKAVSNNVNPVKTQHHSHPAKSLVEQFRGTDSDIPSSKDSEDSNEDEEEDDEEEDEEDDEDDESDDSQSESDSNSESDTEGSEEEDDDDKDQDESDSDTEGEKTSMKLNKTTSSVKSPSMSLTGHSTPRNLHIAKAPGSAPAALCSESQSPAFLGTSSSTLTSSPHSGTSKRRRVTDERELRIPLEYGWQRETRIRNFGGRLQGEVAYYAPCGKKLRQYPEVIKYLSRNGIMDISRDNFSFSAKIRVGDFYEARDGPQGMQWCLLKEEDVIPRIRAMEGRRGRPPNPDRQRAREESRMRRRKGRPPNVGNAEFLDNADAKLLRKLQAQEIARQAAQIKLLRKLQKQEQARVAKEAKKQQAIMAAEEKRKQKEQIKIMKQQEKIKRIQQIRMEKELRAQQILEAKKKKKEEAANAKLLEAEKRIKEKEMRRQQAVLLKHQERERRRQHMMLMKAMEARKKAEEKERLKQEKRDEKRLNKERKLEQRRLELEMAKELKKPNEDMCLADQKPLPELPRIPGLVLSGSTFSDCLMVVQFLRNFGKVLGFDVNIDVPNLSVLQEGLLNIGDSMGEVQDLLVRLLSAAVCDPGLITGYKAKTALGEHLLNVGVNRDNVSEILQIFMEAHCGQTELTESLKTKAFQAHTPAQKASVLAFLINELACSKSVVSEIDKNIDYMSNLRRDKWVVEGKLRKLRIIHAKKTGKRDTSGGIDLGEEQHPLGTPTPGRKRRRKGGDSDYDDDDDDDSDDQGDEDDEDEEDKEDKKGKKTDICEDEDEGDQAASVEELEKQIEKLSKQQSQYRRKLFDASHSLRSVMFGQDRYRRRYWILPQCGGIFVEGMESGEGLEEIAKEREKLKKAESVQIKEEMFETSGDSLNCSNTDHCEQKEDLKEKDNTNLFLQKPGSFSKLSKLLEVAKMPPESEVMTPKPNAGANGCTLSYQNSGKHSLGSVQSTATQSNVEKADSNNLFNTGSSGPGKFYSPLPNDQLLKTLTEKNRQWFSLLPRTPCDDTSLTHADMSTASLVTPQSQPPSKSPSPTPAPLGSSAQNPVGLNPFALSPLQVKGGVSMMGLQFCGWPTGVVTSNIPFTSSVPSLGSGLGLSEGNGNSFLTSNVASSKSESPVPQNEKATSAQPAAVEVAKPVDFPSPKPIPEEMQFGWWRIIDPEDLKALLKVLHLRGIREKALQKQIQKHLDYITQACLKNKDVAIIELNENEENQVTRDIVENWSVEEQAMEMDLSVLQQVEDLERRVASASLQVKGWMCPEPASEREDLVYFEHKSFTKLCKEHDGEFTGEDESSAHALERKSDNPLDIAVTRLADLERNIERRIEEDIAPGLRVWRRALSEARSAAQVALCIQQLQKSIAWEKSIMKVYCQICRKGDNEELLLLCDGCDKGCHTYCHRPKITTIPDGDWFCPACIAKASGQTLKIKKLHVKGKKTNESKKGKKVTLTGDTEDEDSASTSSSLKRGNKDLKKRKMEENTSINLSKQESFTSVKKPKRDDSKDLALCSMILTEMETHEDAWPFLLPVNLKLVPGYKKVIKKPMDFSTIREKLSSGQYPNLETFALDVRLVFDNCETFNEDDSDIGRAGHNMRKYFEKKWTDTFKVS

Structure (SMILES)	Potency	activity change, negative = inhibition
CCCCN1C2=C(C(=O)CC(C)(C)C2)C(c2ccccc2)C2=C1c1ccccc1C2=O (stereo not drawn)	inconclusive: 8.91 µM [inhibitor, full curve]	
Cn1c(-[n+]2c(-c3ccccc3)cc(-c3ccccc3)cc2-c2ccccc2)nc2cc([N+](=O)[O-])ccc21	active: 39.8 µM	
Cc1ccc(N(C)S(=O)(=O)c2ccc3c(c2)NC(=O)C(C)S3)cc1 (stereo not drawn)	inconclusive: 89.1 µM [inhibitor, single point]	
CCCC1(C)SC(NC(C)=O)=NN1C(C)=O (stereo not drawn)		inactive: 4.32%
Cc1oc(-c2cccc(Br)c2)[n+]([O-])c1C		inactive: -9.44%
COc1cc(NC(=O)CC2C(=O)N(c3cccc(C)c3)C(=O)N2Cc2ccco2)cc(OC)c1 (stereo not drawn)	inconclusive: 89.1 µM [inhibitor, single point]	
CCOc1ccc(S(=O)(=O)N2CCCCC2)cc1NC(=O)C1CSC2(C)CCC(=O)N12 (stereo not drawn)		inactive: -2.16%
Cc1ccc(-c2ccc(OCC(=O)N3CCOCC3)cc2)cc1		inactive: 6.68%
CCNC(=O)c1ccc2c(c1)nc1n2CCCCC1		inactive: 12.4%
Cc1c(CNC2CCCCC2)c(C(=O)O)c(C)n1Cc1ccccc1F		inactive: -10%
COc1ccc(CCC(C)NCc2cc(OC)cc(OC)c2)cc1 (stereo not drawn)	inconclusive: 89.1 µM [inhibitor, single point]	
O=C(NCCc1ccccc1)C1CCCN(C(=O)Nc2ccc(F)cc2)C1 (stereo not drawn)		inactive: 7.28%
Cc1nc2sccn2c(=O)c1CCN1CCC(=C(c2ccccc2)c2ccc(F)cc2)CC1	inconclusive: 50.1 µM [inhibitor, partial curve]	
CC(C)c1ccc(C(C(=O)NC2CCCCC2)N(C(=O)c2csnn2)C2CC2)cc1 (stereo not drawn)	inconclusive: 89.1 µM [inhibitor, single point]	
CCOC(=O)c1c(-c2ccccc2)csc1NC(=O)C(C)NCc1ccco1 (stereo not drawn)	active: 50.1 µM	
COc1ccccc1-n1nnnc1SCC(=O)N(C)C1CCS(=O)(=O)C1 (stereo not drawn)		inactive: 33.8%
CCOc1ccccc1NC1(c2ccccc2)C(=O)c2ccccc2C1=O	inconclusive: 31.6 µM [inhibitor, single point]	
CC1CCCCN1CCCNC(=O)c1cc(Sc2cccc(Cl)c2)nc2ccccc12 (stereo not drawn)		inactive: -11.9%
CC1CCCCN1CCNC(=O)c1ccc2c(=O)n(Cc3ccc(Cl)cc3)c(=S)[nH]c2c1 (stereo not drawn)		inactive: -31.4%
Cc1c(C#N)c(N=CN(C)C)c(C(=O)c2ccccc2)n1-c1ccc(Br)cc1	inconclusive: 44.7 µM [inhibitor, partial curve]	
COc1ccc(C(=O)/C=C/c2ccc(OC)c(Cn3nnc4ccccc43)c2)cc1		inactive: -34.2%
COc1ccc(-n2c(Cc3cccn3C)nnc2SCC(=O)Nc2nccs2)cc1	inconclusive: 50.1 µM [inhibitor, partial curve]	
O=C(CN1CCN(Cc2ccccc2)CC1)Nc1ccc([N+](=O)[O-])cc1C(=O)Nc1ccccc1F	inconclusive: 44.7 µM [inhibitor, partial curve]	
O=C(Nc1cccc(Cl)c1)C1CCCN(c2nn3cc(-c4ccc(F)cc4)nc3s2)C1 (stereo not drawn)		inactive: 4.65%
CCn1c(=O)n(-c2ccc3c(c2)OCO3)c2nc(-c3ccc(C(C)C)cc3)nc(C(N)=O)c21		inactive: -6%

Structure (SMILES)	Potency	activity change, negative = inhibition
CC(C)(C)C(=O)COc1ccccc1[N+](=O)[O-]	inconclusive: 79.4 µM [inhibitor, single point]	
CC1=C(C(=O)OCc2ccccc2)C(c2ccc3ccccc3c2)NC(=O)N1CCCCCC(=O)O (stereo not drawn)	inconclusive: 50.1 µM [inhibitor, partial curve]	
Cc1ccc(CNC(=O)CCc2c(C)nn(-c3ccc(N4CCOCC4)nn3)c2C)cc1	inconclusive: 79.4 µM [inhibitor, partial curve]	
COc1ccccc1N/N=C(\C#N)C(=N)N1CCOCC1	inconclusive: 79.4 µM [inhibitor, single point]	
Nc1nc(COC(=O)c2ccc3c(c2)OCCO3)nc(Nc2ccccc2)n1	inconclusive: 100 µM [inhibitor, single point]	
COc1ccc(N2CCN(C(=O)C(OC(C)=O)c3ccccc3)CC2)cc1 (stereo not drawn)		inactive: -6.74%
COc1ccc(NC(=O)CSc2ncc(-c3ccc(F)cc3)n2Cc2ccco2)cc1	active: 31.6 µM	
Cn1cnc(S(=O)(=O)N2CCCC(C(=O)NCc3ccc(Cl)cc3)C2)c1 (stereo not drawn)		inactive: -7.31%
COc1ccc(/C=N/NC(=O)Cn2nnc3ccccc32)cc1OC		inactive: -24.8%
CCOc1ccc(C(=O)Nc2cc(NC(=O)c3ccc(OCC)c(Cl)c3)cc(C(=O)O)c2)cc1Cl	inconclusive: 79.4 µM [inhibitor, partial curve]	
CCOc1ccc(Oc2ccccc2NC(=O)CSCC(=O)Nc2cc(C)on2)cc1		inactive: -6.67%
CCc1cccc(NC(=O)CSc2nncn3c2cc2sccc23)c1		inactive: -27.5%
CCn1c2ccccc2c2cc(CN3CCN(Cc4cc(OC)c(O)c(OC)c4)CC3)ccc21	active: 22.4 µM	
Cn1nnc(NC(=S)NC(=O)c2cc(Cl)ccc2Cl)n1	inconclusive: 39.8 µM [inhibitor, partial curve]	
Cc1ccc(NC(=O)c2sc3ncn(Cc4cccc(F)c4)c(=O)c3c2C)c(Br)c1		inactive: 76.6%
Clc1ccc(/C=N/N2CCN(Cc3ccccc3)CC2)cc1	active: 44.7 µM	
CC(C)(C)C(=O)N1CCc2cc(-c3csc(N)n3)ccc21	active: 50.1 µM	
CC1CCCCC12NC(=O)N(CC(=O)Nc1ccc(N3CCCCC3)cc1)C2=O (stereo not drawn)		inactive: -35%
CCCCNC(=O)CN1C(=O)c2cccnc2Sc2ccccc21		inactive: 3.01%
CC(C)c1ccc(Nc2nnc(SCC(=O)c3nnc(-c4ccccc4)o3)s2)cc1	active: 35.5 µM	
CC1=C(C(=O)Nc2cccnc2)C(c2cccc(F)c2)n2nc(SCc3ccccc3F)nc2N1 (stereo not drawn)	inconclusive: 89.1 µM [inhibitor, single point]	
NC(=NCCCCCCN=C(N)/N=C(\N)Nc1ccc(Cl)cc1)/N=C(\N)Nc1ccc(Cl)cc1	inactive	
COc1ccc(/C=C2\CN(Cc3ccccc3)C/C(=C\c3ccc(OC)cc3)C2=O)cc1	inconclusive: 10 µM [inhibitor, full curve]	
O=C(O)COc1ccccc1/C=N/NC(=O)CSc1nc2ccccc2n1Cc1ccc(Cl)cc1	inconclusive: 79.4 µM [inhibitor, single point]	
Cc1ccc(C)c(N2CCN(C(=O)c3cc4c(C)nc5ccccc5c4o3)CC2)c1	inconclusive: 50.1 µM [inhibitor, partial curve]	

Structure (SMILES)	Potency	activity change, negative = inhibition
CC1=Nc2ccccc2N=C(N)C1c1ccccc1 (stereo not drawn)	inconclusive: 79.4 µM [inhibitor, single point]	
CC(C)(C)C(=O)OCc1nc(-c2ccc(O)c(O)c2)cs1	active: 56.2 µM	
O=C(Nc1ccc(C2=NCCN2)cc1)c1ccc(Cl)c(C(=O)Nc2ccc(C3=NCCN3)cc2)c1		inactive: -23.3%
CCCn1c(C2CCCN2c2nc(C)cs2)nc2cc(Cl)c(Cl)cc21 (stereo not drawn)	inconclusive: 28.2 µM [inhibitor, partial curve]	
C/C(=N\O)C(=O)NCCCn1ccnc1	inconclusive: 89.1 µM [inhibitor, single point]	
Cc1ccc(Nc2nc(-c3ccc(C)cc3)c(CC(=O)O)s2)cc1	inconclusive: 50.1 µM [inhibitor, partial curve]	
O=C1COc2ccc(NC(=O)c3ccccc3C(=O)O)cc2N1		inactive: -16.5%
CCOc1ccc(OCC)c(NC(=O)C2C3C=CC(O3)C2C(=O)NCc2ccco2)c1 (stereo not drawn)	inconclusive: 50.1 µM [inhibitor, partial curve]	
CN1CCN(c2ncnc3c2c(-c2ccccc2)cn3-c2ccc(F)cc2)CC1	inconclusive: 22.4 µM [inhibitor, full curve]	
O=C(/C=C/c1ccco1)N/C(=C\c1ccco1)C(=O)NCCc1nc2ccccc2[nH]1	inconclusive: 50.1 µM [inhibitor, partial curve]	
O=C(COC(=O)CCCc1c[nH]c2ccccc12)Nc1ccc2c(c1)OCO2	inconclusive: 89.1 µM [inhibitor, single point]	
COc1cc(SC)ccc1C(=O)N1CCc2ccccc21		inactive: -5.04%
O=C(CCn1c(=O)oc2ccccc21)NCCCN1CCN(c2ccc(F)cc2)CC1	inconclusive: 35.5 µM [inhibitor, partial curve, poor fit]	
Cc1ccc(/C=C2\SC(=S)N(c3cccnc3)C2=O)cc1	inconclusive: 28.2 µM [inhibitor, full curve, poor fit]	
O=C(Cc1coc2cc3c(cc12)CCC3)OCc1cc(=O)n2c(n1)sc1ccccc12	active: 50.1 µM	
Cc1cccc(NC(=O)CC2SC(=O)N(c3ccccc3)C2=O)c1 (stereo not drawn)		inactive: -36.8%
Cc1c(Cl)cnc(NC(=O)COC(=O)c2nn(C)c(=O)c3ccccc23)c1Cl	inconclusive: 89.1 µM [inhibitor, single point]	
CCc1ccc(OCC(=O)c2c(O)c3ccccc3oc2=O)cc1	inconclusive: 79.4 µM [inhibitor, partial curve]	
O=C(O)CCCN1C(=O)/C(=C\c2ccco2)SC1=S	inconclusive: 50.1 µM [inhibitor, partial curve]	
CCOC(=O)N1CCC(N2C(=O)c3ccccc3C2Nc2ccc3c(c2)OCCO3)CC1 (stereo not drawn)	inconclusive: 56.2 µM [inhibitor, partial curve, poor fit]	
O=[N+]([O-])c1ccc(Sc2nccn2Cc2ccccc2)c([N+](=O)[O-])c1	inconclusive: 44.7 µM [inhibitor, partial curve]	
Cc1ccc(NC(=O)C2CC(=O)n3ncnc3N2)cc1C (stereo not drawn)		inactive: -27.1%
Cc1cc(C(=O)CSc2ccc3c(c2)OCCO3)c(C)n1C1CC1	active: 79.4 µM	
